± gives the standard error. Variants at the background level are over-represented here.
B1: glmS ribozyme (parent)
chain: AUAAAAGCGCCAGAACUACAGAAAUGUAGUUGACGAGGAGGAGGUUUAUCGAAUUUUCGGCGGAUGCCUCCAAA

Legend:
Conditions in all cases: with glucosamine-6-phosphate
glucosamine-6-phosphate [1] = variants of: B1; experiment: self-cleavage kobs at 40 uM GlcN6P; higher = faster cleavage; RNA array
Outline: (§1)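 Sequenced MiSeq chips were the platform: E. coli RNA polymerase transcribed barcoded ribozyme variants on them in situ, and a hybridised Cy3 probe tracked these at 37 °C. After glucosamine-6-phosphate (40 μM to 10 mM) in HEPES/KCl/Mg(OAc)2 buffer was flowed in, tiles were imaged over ~14 h. Signals normalised to baseline and to non-cleaving reference variants were reduced to per-tile medians and fit to one- or two-exponential decays to obtain kobs. kcat and KM were derived through weighted Michaelis–Menten fits across concentrations.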

glucosamine-6-phosphate [2] = variants of: B1; experiment: self-cleavage kobs at 640 uM GlcN6P; higher = faster cleavage; RNA array
Outline: as §1

glucosamine-6-phosphate [3] = variants of: B1; experiment: self-cleavage kobs at 160 uM GlcN6P; higher = faster cleavage; RNA array
Outline: as §1

glucosamine-6-phosphate [4] = variants of: B1; experiment: self-cleavage kobs at 2500 uM GlcN6P; higher = faster cleavage; RNA array
Outline: as §1

glucosamine-6-phosphate [5] = variants of: B1; experiment: self-cleavage kobs at 10000 uM GlcN6P; higher = faster cleavage; RNA array
Outline: as §1

Variant | self-cleavage kobs at 40 uM GlcN6P (glucosamine-6-phosphate [1]) | self-cleavage kobs at 640 uM GlcN6P (glucosamine-6-phosphate [2]) | self-cleavage kobs at 160 uM GlcN6P (glucosamine-6-phosphate [3]) | self-cleavage kobs at 2500 uM GlcN6P (glucosamine-6-phosphate [4]) | self-cleavage kobs at 10000 uM GlcN6P (glucosamine-6-phosphate [5])
AUAAAAGCGCCAGAACUACAGAAAUGUAGUUGACGAGGAGGAGUUUUAUCGAAUUUUCAGCGGAUGCCUCCAAA [G44U G59A] | < 1e-05 s⁻¹ | < 1e-05 s⁻¹ | < 1e-05 s⁻¹ | < 1e-05 s⁻¹ | < 1e-05 s⁻¹
AUAAAAGCGCCAGAACUACAGAAAUGUAGUUGACGAGGAGGAGUUUUAUCGAAUUUUCCGCGGAUGCCUCCAAA [G44U G59C] | < 1e-05 s⁻¹ | < 1e-05 s⁻¹ | < 1e-05 s⁻¹ | < 1e-05 s⁻¹ | < 1e-05 s⁻¹
AUAAAAGCGCCAGAACUACAGAAAUGUAGUUGACGAGGAGGAGGCUUAUCGAAUUUUCAGCGGAUGCCUCCAAA [U45C G59A] | < 1e-05 s⁻¹ | < 1e-05 s⁻¹ | < 1e-05 s⁻¹ |  | 
AUAAAAGCGCCAGAACUACAGAAAUGUAGUUGACGAGGAGGAGUUUUAUCGAAUUUUCGGCGGAUGCCUGCAAA [G44U C70G] | < 1e-05 s⁻¹ | < 1e-05 s⁻¹ | < 1e-05 s⁻¹ | < 1e-05 s⁻¹ | < 1e-05 s⁻¹
AUAAAAGCGCCAGAACUACAGAAAUGUAGUUGACGAGGAGGAGGAUUAUCGAAUUUUCGGCGGAUUCCUCCAAA [U45A G66U] | 4.15e-05 ± 1.3e-05 s⁻¹ | 0.000508 ± 0.0001 s⁻¹ | 0.000117 ± 3.4e-05 s⁻¹ | 0.00104 ± 0.00022 s⁻¹ | 0.0016 ± 0.00026 s⁻¹
AUAAAAGCGCCAGAACUACAGAAAUGUAGUUGACGAGGAGGAGGCUUAUCGAUUUUUCGGCGGAUGCCUCCAAA [U45C A53U] | 4.26e-05 ± 1.2e-05 s⁻¹ | 0.00031 ± 5e-05 s⁻¹ | 0.000117 ± 2.5e-05 s⁻¹ | 0.00109 ± 0.00022 s⁻¹ | 0.00199 ± 0.00035 s⁻¹
AUAAAAGCGCCAGAACUACAGAAAUGUAGUUGACGAGGAGGAGUUUUAUCGAAUUAUCGGCGGAUGCGUCCAAA [G44U U56A C68G] | < 1e-05 s⁻¹ |  |  |  | 
AUAAAAGCGCCAGAACUACAGAAAUGUAGUUGACGAGGAGGAGUUUUAUCGAAUUUUCGGCCGAUGCCUCCAAA [G44U G62C] | < 1e-05 s⁻¹ | < 1e-05 s⁻¹ | < 1e-05 s⁻¹ | < 1e-05 s⁻¹ | < 1e-05 s⁻¹
AUAAAAGCGCCAGAACUACAGAAAUGUAGUUGACGAGGAGGAGGAUUAUCGAAUUUUCGCCGGAUGCCUCGAAA [U45A G60C C71G] | < 1e-05 s⁻¹ | < 1e-05 s⁻¹ |  | < 1e-05 s⁻¹ | 
AUAAAAGCGCCAGAACUACAGAAAUGUAGUUGACGAGGAGGAGGCUUAUCGUAUUUUCGGCGGAUGCCUCCAAA [U45C A52U] | < 1e-05 s⁻¹ |  |  |  | 

— the supplement of paper PMC7125110
